The assay deals with GTPase KRas (Homo sapiens) (UniProt P01116). The experiment in a line: Covalent labelling of cysteine mutants by fragments, read by mass spectrometry (AID 2202238). The arrangement: protein at 5 µM with 500 µM competing thiol for 1.5 h. Particulars: KRAS G12D cysteine mutants, disulfide tethering, MALDI-TOF labeling, stronger effect = higher value, fragment at 500 µM.
The mark [1] stands for this setting: measured here: G75C mutant labeling.
[2] abbreviates: measured here: H94C mutant labeling.
The mark [3] stands for this setting: measured here: I36C mutant labeling.
[4] abbreviates: measured here: L120C mutant labeling.
[5] abbreviates: measured here: M67C mutant labeling.
The mark [6] stands for this setting: measured here: M72C mutant labeling.
Where [7] appears, read: measured here: N86C mutant labeling.
[8] abbreviates: measured here: P121C mutant labeling.
Setting [9] is: measured here: S122C mutant labeling.
Setting [10] is: measured here: S136C mutant labeling.
Where [11] appears, read: measured here: G60C mutant labeling.
Where [12] appears, read: measured here: N26C mutant labeling.

The structures appear in SMILES notation. Some of the results follow. Further columns of the screen follow, without active or inactive calls.

Chain of UniProt P01116 (P01116 whole entry, looked up, the tested form may be a part): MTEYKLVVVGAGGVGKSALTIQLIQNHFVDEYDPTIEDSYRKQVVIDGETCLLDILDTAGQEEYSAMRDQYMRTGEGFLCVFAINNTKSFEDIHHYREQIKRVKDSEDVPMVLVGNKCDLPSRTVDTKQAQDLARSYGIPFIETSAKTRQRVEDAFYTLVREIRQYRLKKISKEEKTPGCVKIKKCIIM

`O=C(CCS)NC1CC(=O)N(Cc2ccccc2)C1` (stereo not given): the percent labeling was 11.7% under setting [1]; 32.6% under setting [2]; 39% under setting [3]; 32.3% under setting [4]; 40.9% under setting [5]; 27.9% under setting [6]. The percent labeling is 14.4% under setting [7], 35.3% under setting [8], 33.5% under setting [9] and 53.8% under setting [10].
On to `O=C(CCS)NC1CCC(CO)(CO)CC1`, for which the percent labeling is, setting by setting: under setting [1], 0%; under setting [2], 25.1%; under setting [3], 29.7%; under setting [4], 20.8%; under setting [5], 29.1%; under setting [6], 8.2%. Moreover, the percent labeling turned out to be 11% under setting [7], 25.9% under setting [8], 30.6% under setting [9] and 38.6% under setting [10].
As for `O=C(NCCS)c1ccccc1-c1ncc[nH]1`, the percent labeling is, setting by setting: under setting [11], 42.5%; under setting [1], 19.8%; under setting [2], 32.3%; under setting [3], 28.6%; under setting [4], 35.9%; under setting [5], 29.2%. For the same compound, the percent labeling under setting [6] is 33.2%; the percent labeling under setting [12] was found to be 43.7%; the percent labeling under setting [7] was found to be 30.1%; the percent labeling under setting [8] was 30.2%; the percent labeling under setting [9] turned out to be 32.5%; the percent labeling under setting [10] came out at 37.2%.
On to `O=C(CCS)Nc1cccc(-c2nc(C3CC3)no2)c1`, for which the percent labeling came to 6.7% under setting [1]; 13.9% under setting [2]; 18.3% under setting [3]; 20.2% under setting [4]; 10.5% under setting [5]; 29% under setting [6]. Besides, the percent labeling under setting [7] came to 15%, the percent labeling under setting [8] was determined as 14.6%, the percent labeling under setting [9] came out at 10.9% and the percent labeling under setting [10] amounted to 24%.
For `COc1cccc(-c2c[nH]cc2C(=O)NCCS)c1`, the percent labeling is, setting by setting: under setting [11], 45.2%; under setting [1], 19%; under setting [2], 35.7%; under setting [3], 16.1%; under setting [4], 40.7%; under setting [5], 32.6%. Besides, the percent labeling is 56.1% under setting [6]; 33.1% under setting [12]; 25% under setting [7]; 25.1% under setting [8]; 20% under setting [9]; 31.9% under setting [10].
Compound `O=C(NCCS)C1CCC(=O)N(CC(F)(F)F)C1` (stereo not given) displayed a percent labeling under setting [11] of 27%; a percent labeling under setting [1] of 9.2%; a percent labeling under setting [2] of 35.9%; a percent labeling under setting [3] of 33.7%; a percent labeling under setting [4] of 43.8%; a percent labeling under setting [5] of 30.6%. Besides, the percent labeling runs as follows: under setting [6], 17.9%; under setting [12], 33.2%; under setting [7], 23.9%; under setting [8], 38.5%; under setting [9], 33.7%; under setting [10], 46.7%.
Compound `COc1cc2nc(N3CCN(C(=O)CCS)CC3)nc(N)c2cc1OC` returned a percent labeling under setting [1] of 11%; a percent labeling under setting [2] of 13.8%; a percent labeling under setting [3] of 23.9%; a percent labeling under setting [4] of 12%; a percent labeling under setting [5] of 15.8%; a percent labeling under setting [6] of 20.3%. The percent labeling runs as follows: under setting [7], 6.9%; under setting [8], 13.4%; under setting [9], 8.5%; under setting [10], 34.2%.
`O=C(CCS)N1CCN(C(=O)c2ccc(F)cc2F)CC1`: the percent labeling under setting [1] was determined as 12.9%; the percent labeling under setting [2] was 34.4%; the percent labeling under setting [3] stood at 41.4%; the percent labeling under setting [4] worked out at 30.3%; the percent labeling under setting [5] is 38.1%; the percent labeling under setting [6] is 25.6%. For the same compound, the percent labeling reads like this: under setting [7], 18.2%; under setting [8], 39.1%; under setting [9], 38%; under setting [10], 54%.
On to `O=C(CCc1cc(Br)ccc1F)NCCS`, for which the percent labeling under setting [11] was 55.9%; the percent labeling under setting [1] turned out to be 26.7%; the percent labeling under setting [2] was 31.1%; the percent labeling under setting [3] amounted to 19.5%; the percent labeling under setting [4] stood at 28.2%; the percent labeling under setting [5] is 27.4%. The percent labeling runs as follows: under setting [6], 49.9%; under setting [12], 34.6%; under setting [7], 24.9%; under setting [8], 26.1%; under setting [9], 18.4%; under setting [10], 30.4%.
In turn, `Cn1cc(Br)c(C(=O)NCCS)cc1=O` had a percent labeling under setting [11] of 27%; a percent labeling under setting [1] of 8.8%; a percent labeling under setting [2] of 24.2%; a percent labeling under setting [3] of 20.6%; a percent labeling under setting [4] of 30.4%; a percent labeling under setting [5] of 25.5%. The percent labeling by setting is: under setting [6], 16.6%; under setting [12], 32.2%; under setting [7], 27.7%; under setting [8], 25.5%; under setting [9], 28%; under setting [10], 35.3%.
Regarding `Cc1ccc(C(=O)NCCS)c(Cl)n1`, the percent labeling stood at 39.9% under setting [11]; 19% under setting [1]; 32.8% under setting [2]; 33.6% under setting [3]; 29.9% under setting [4]; 36% under setting [5]. Further, the percent labeling by setting is: under setting [6], 30.7%; under setting [12], 37.2%; under setting [7], 31.2%; under setting [8], 34.7%; under setting [9], 34.2%; under setting [10], 52.2%.
As to `O=C(CCS)NCCc1nc(-c2ccccc2)no1`, the percent labeling was found to be 13.6% under setting [1]; 35.7% under setting [2]; 42.8% under setting [3]; 30.4% under setting [4]; 50.8% under setting [5]; 36% under setting [6]. Also, the percent labeling under setting [7] is 22.4%, the percent labeling under setting [8] is 47.7%, the percent labeling under setting [9] is 34.9% and the percent labeling under setting [10] came to 52.6%.
Compound `Cc1nnnn1-c1cc(F)cc(C(=O)NCCS)c1` returned a percent labeling under setting [11] of 38.5%; a percent labeling under setting [1] of 18.7%; a percent labeling under setting [2] of 38.9%; a percent labeling under setting [3] of 31.1%; a percent labeling under setting [4] of 36.3%; a percent labeling under setting [5] of 38.9%. The percent labeling reads like this: under setting [6], 37.7%; under setting [12], 44.3%; under setting [7], 29.8%; under setting [8], 35%; under setting [9], 36.8%; under setting [10], 46%.
As to `O=C(NCCS)c1ccc(-n2cnc3ccccc32)nc1`, the percent labeling under setting [11] came out at 24.1%; the percent labeling under setting [1] is 11.4%; the percent labeling under setting [2] came out at 13.5%; the percent labeling under setting [3] is 12%; the percent labeling under setting [4] was determined as 13.5%; the percent labeling under setting [5] is 14.1%. For the same compound, the percent labeling was 33.7% under setting [6]; 27.9% under setting [12]; 13.8% under setting [7]; 12.2% under setting [8]; 8.6% under setting [9]; 16% under setting [10].
As for `Cc1ccc2c(CCNC(=O)CCS)c[nH]c2n1`, the percent labeling runs as follows: under setting [1], 19.6%; under setting [2], 31.4%; under setting [3], 49.8%; under setting [4], 37.4%; under setting [5], 36.1%; under setting [6], 39.1%. Further, the percent labeling was 29.5% under setting [7], 33.8% under setting [8], 32.7% under setting [9] and 51.3% under setting [10].
Regarding `CC(C)n1cc(C2=CCCN(C(=O)CCS)CC2)nn1`, the percent labeling reads like this: under setting [1], 5.9%; under setting [2], 22.5%; under setting [3], 21.5%; under setting [4], 16.3%; under setting [5], 19.4%; under setting [6], 8.6%. Moreover, the percent labeling by setting is: under setting [7], 11.6%; under setting [8], 13.8%; under setting [9], 20.3%; under setting [10], 30.6%.
In the case of `O=C(CCS)NCC12CC(Cc3ccccc3)(CO1)C2`, the percent labeling by setting is: under setting [1], 24.3%; under setting [2], 38.3%; under setting [3], 41.6%; under setting [4], 46.7%; under setting [5], 51.2%; under setting [6], 40.5%. In addition, the percent labeling was 26.3% under setting [7], 38.1% under setting [8], 38.8% under setting [9] and 60.7% under setting [10].
In the case of `NC(=O)C1(N2CCN(C(=O)CCS)CC2)CCCCC1`, the percent labeling was found to be 11.2% under setting [1]; 30.9% under setting [2]; 40% under setting [3]; 35.6% under setting [4]; 40.2% under setting [5]; 19.6% under setting [6]. Besides, the percent labeling by setting is: under setting [7], 26.3%; under setting [8], 32.7%; under setting [9], 40%; under setting [10], 56.8%.
Regarding `Cc1cc(NC(=O)CCS)nn1Cc1ccccc1Cl`, the percent labeling is, setting by setting: under setting [1], 14.8%; under setting [2], 19.5%; under setting [3], 23.8%; under setting [4], 25.5%; under setting [5], 21.2%; under setting [6], 31.3%. Also, the percent labeling by setting is: under setting [7], 19%; under setting [8], 20.6%; under setting [9], 15.9%; under setting [10], 39.9%.
As for `CN(Cc1nc2ccccc2c(=O)[nH]1)C(=O)CCS`, the percent labeling by setting is: under setting [1], 16.7%; under setting [2], 35.9%; under setting [3], 39.9%; under setting [4], 38.4%; under setting [5], 43.9%; under setting [6], 52.2%. In addition, the percent labeling by setting is: under setting [7], 33%; under setting [8], 66.1%; under setting [9], 35.5%; under setting [10], 56.9%.
With `O=C(NCCS)c1ccc(Cl)c(N2CCNC2=O)c1`, the percent labeling was determined as 48.5% under setting [11]; 27.8% under setting [1]; 41.8% under setting [2]; 29.7% under setting [3]; 47.4% under setting [4]; 34.6% under setting [5]. Also, the percent labeling came out at 51.5% under setting [6]; 46.2% under setting [12]; 30.8% under setting [7]; 35.8% under setting [8]; 36.5% under setting [9]; 75.5% under setting [10].
Take `O=C(CCS)Nc1ccccc1CN1CCc2ccccc21`: the percent labeling came to 0% under setting [1]; 17.2% under setting [2]; 10.6% under setting [3]; 0% under setting [4]; 10.2% under setting [5]; 7% under setting [6]. Moreover, the percent labeling is, setting by setting: under setting [7], 0%; under setting [8], 4.9%; under setting [9], 5.9%; under setting [10], 14%.
Take `CCCN(CCC)C(=O)c1ccc(NC(=O)CCS)cc1`: the percent labeling came to 15% under setting [1]; 27.4% under setting [2]; 26.6% under setting [3]; 26.3% under setting [4]; 26.6% under setting [5]; 30.7% under setting [6]. Also, the percent labeling stood at 23% under setting [7], 28% under setting [8], 21.3% under setting [9] and 47.8% under setting [10].
As to `O=C(Cc1sc(-c2ccccc2)nc1-c1cccs1)NCCS`, the percent labeling came to 33.2% under setting [11]; 13.3% under setting [1]; 13.5% under setting [2]; 8.7% under setting [3]; 14% under setting [4]; 5.3% under setting [5]. The percent labeling is 27.9% under setting [6]; 14.5% under setting [12]; 6.3% under setting [7]; 8.1% under setting [8]; 2.8% under setting [9]; 15.8% under setting [10].

(Values after PubChem BioAssay AID2202238 (Ras Initiative Chemistry Research Team, Frederick National …, 2025).)
